{"source": "the supplement of paper PMC8183993", "note": "Where a name gives a salt, the structure may show the parent alone. ± gives the standard deviation of the averaged measurements. Whole data set: some 3,200 compounds, median “nuclei count (viability) relative to DMSO” near 99, cut for the lowest 2% near 16. This is one part of the list."}
{"test_system": "U2OS", "test": "nuclei count (viability) relative to DMSO (% of DMSO); higher = more viable cells", "conditions": "10 µM; 24 h", "procedure": "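Primary image-based screen in U2OS cells: compounds at 10 uM for 24 h, then a 1 h o-propargyl-puromycin (OPP) pulse, click labelling, and high-throughput microscopy. Mean cytoplasmic OPP intensity and nuclei count were normalised to DMSO wells within each plate (DMSO = 100) and averaged over triplicate plates.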"}
{"smiles": "CN1CC(=O)N2[C@H](c3ccc4c(c3)OCO4)c3[nH]c4ccccc4c3C[C@@H]2C1=O", "note": "[Tadalafil (Cialis)]", "nuclei count": 98.8}
{"smiles": "C1CCC(C(CC2CCCCN2)C2CCCCC2)CC1", "note": "(stereo unspecified) [Perhexiline maleate]", "nuclei count": 5.66}
{"smiles": "COc1cc2c(cc1OC)CC(=O)N(CCCN(C)C[C@H]1Cc3cc(OC)c(OC)cc31)CC2", "note": "[Ivabradine HCl (Procoralan)]", "nuclei count": 97.9}
{"smiles": "C[C@H]1c2cccc(O)c2C(=O)C2=C(O)[C@]3(O)C(=O)C(C(N)=O)=C(O)[C@@H](N(C)C)[C@@H]3[C@@H](O)[C@@H]21", "note": "[Doxycycline hydrochloride]", "nuclei count": 108}
{"smiles": "C[C@H]1c2cccc(O)c2C(=O)C2=C(O)[C@]3(O)C(=O)C(C(N)=O)=C(O)[C@@H](N(C)C)[C@@H]3[C@@H](O)[C@@H]21", "note": "[Doxycycline HCl]", "nuclei count": 106}
{"smiles": "N[C@@H](CSC(c1ccccc1)(c1ccccc1)c1ccccc1)C(=O)O", "note": "[S-Trityl-L-cysteine]", "nuclei count": 95}
{"smiles": "Cc1c(C(=O)NN2CCCCC2)nn(-c2ccc(Cl)cc2Cl)c1-c1ccc(Cl)cc1", "nuclei count": 85.5}
{"smiles": "O=C(CCCN1C(=O)c2cccc3cccc(c23)C1=O)NO", "note": "[Nullscript]", "nuclei count": 95.8}
{"smiles": "C[C@](N)(Cc1ccc(O)c(O)c1)C(=O)O", "note": "[Methyldopa (L,-)]", "nuclei count": 103}
{"smiles": "COC(=O)/C=C/c1cccc(N(Cc2ccc(-c3ccc(N(C)C)cc3)cc2)C(=O)C2CCCCC2)c1", "note": "[Fexaramine]", "nuclei count": 100}
{"smiles": "c1cnc(N2CCN(Cc3ccc4c(c3)OCO4)CC2)nc1", "note": "[Piribedil]", "nuclei count": 105}
{"smiles": "c1cnc(N2CCN(Cc3ccc4c(c3)OCO4)CC2)nc1", "note": "[Piribedil hydrochloride]", "nuclei count": 103}
{"smiles": "CCOC(=O)c1cnc2ccc(-c3cncc(NS(=O)(=O)c4ccccc4)c3)cn12", "nuclei count": 18.8}
{"smiles": "Clc1ccc(C(Cn2ccnc2)OCc2ccsc2Cl)c(Cl)c1", "note": "(stereo unspecified) [Tioconazole]", "nuclei count": 100}
{"smiles": "CCCC1C(=O)N2C(N(C)C)=Nc3ccc(C)cc3N2C1=O", "note": "(stereo unspecified) [Azapropazone]", "nuclei count": 103}
{"smiles": "O=C(O)CNC(=O)C(CS)Cc1ccccc1", "note": "(racemic) [DL-Thiorphan]", "nuclei count": 113}
{"smiles": "O=C(O)CNC(=O)C(CS)Cc1ccccc1", "note": "(racemic) [Thiorphan]", "nuclei count": 88.1}
{"smiles": "N=C(N)c1ccc(N2CCN(C3CCN(CC(=O)O)CC3)CC2)cc1", "nuclei count": 104}
{"smiles": "CCOC(=O)O[C@]1(C(=O)OCCl)CC[C@H]2[C@@H]3CCC4=CC(=O)C=C[C@]4(C)[C@H]3[C@@H](O)C[C@@]21C", "note": "[Loteprednol etabonate]", "nuclei count": 102}
{"smiles": "CCc1cc2c(cc1N1CCC(N3CCOCC3)CC1)C(C)(C)c1[nH]c3cc(C#N)ccc3c1C2=O", "nuclei count": 103}
{"smiles": "CSc1cc2c(cc1C(F)(F)F)N(C(=O)Nc1cccnc1)CC2", "nuclei count": 88.3}
{"smiles": "O=C(O)C(=O)O.[NH-][C@@H]1CCCC[C@H]1[NH-].[Pt+2]", "note": "[Oxaliplatin]", "nuclei count": 76.1}
{"smiles": "Cc1nn(-c2ccccc2)c(C)c1C=NN1CCN(Cc2ccccc2)CC1", "nuclei count": 83}
{"smiles": "CC(C)C(=O)Oc1ccc(CO)cc1[C@H](CCN(C(C)C)C(C)C)c1ccccc1", "note": "[Fesoterodine fumarate (Toviaz)]", "nuclei count": 98.7}
{"smiles": "Cc1ccc(NC(=O)c2ccc(CN3CCN(C)CC3)cc2)cc1Nc1nccc(-c2cccnc2)n1", "note": "[Imatinib (STI571)]", "nuclei count": 99.1}
{"smiles": "Cc1ccc(NC(=O)c2ccc(CN3CCN(C)CC3)cc2)cc1Nc1nccc(-c2cccnc2)n1", "note": "[Imatinib Mesylate]", "nuclei count": 96.8}
{"smiles": "Cc1ccc(NC(=O)c2ccc(CN3CCN(C)CC3)cc2)cc1Nc1nccc(-c2cccnc2)n1", "note": "[Imatinib mesylate]", "nuclei count": "93.1 ± 2.5"}
{"smiles": "Cc1ccc(NC(=O)c2ccc(CN3CCN(C)CC3)cc2)cc1Nc1nccc(-c2cccnc2)n1", "note": "[Imatinib]", "nuclei count": 101}
{"smiles": "Cc1cc2nc3c(=O)[nH]c(=O)nc-3n(C)c2cc1C=O", "nuclei count": 51.4}
{"smiles": "C[C@]1(O)C[C@@H](c2nc(-c3ccc4ccc(-c5ccccc5)nc4c3)c3c(N)nccn32)C1", "note": "[OSI-906 (Linsitinib)]", "nuclei count": 99}
{"smiles": "C[C@]1(O)C[C@@H](c2nc(-c3ccc4ccc(-c5ccccc5)nc4c3)c3c(N)nccn32)C1", "note": "[Linsitinib (OSI-906)]", "nuclei count": 91.1}
{"smiles": "O=C(C1CCCCC1)N1CC(=O)N2CCc3ccccc3C2C1", "note": "(stereo unspecified) [Praziquantel]", "nuclei count": 97.7}
{"smiles": "C[C@@H]1CCO[C@H]2Cn3cc(C(=O)NCc4ccc(F)cc4F)c(=O)c(O)c3C(=O)N12", "nuclei count": 99.8}
{"smiles": "C(=C\\c1ccccc1)/CN1CCN(C(c2ccccc2)c2ccccc2)CC1", "note": "[Cinnarizine]", "nuclei count": 107}
{"smiles": "COc1ccc2c(c1)c(CC(=O)O)c(C)n2C(=O)c1ccc(Cl)cc1", "note": "[Indomethacin]", "nuclei count": "98.1 ± 10"}
{"smiles": "Nc1nc2ccc(OC(F)(F)F)cc2s1", "note": "[Riluzole]", "nuclei count": 101}
{"smiles": "Nc1nc2ccc(OC(F)(F)F)cc2s1", "note": "[Riluzole hydrochloride]", "nuclei count": "95.29 ± 0.2"}
{"smiles": "CN1CCC(=C2c3ccccc3CCc3cccnc32)CC1", "note": "[Azatadine dimaleate]", "nuclei count": 109}
{"smiles": "CNC(=O)c1cc(Oc2ccc(NC(=O)Nc3cc(C(C)(C)C)nn3-c3ccc4ncccc4c3)c(F)c2)ccn1", "note": "[DCC-2036 (Rebastinib)]", "nuclei count": 70.1}
{"smiles": "C/C=C1\\C(=O)C[C@H]2[C@@H]3CCC4=CC(=O)CC[C@]4(C)[C@H]3CC[C@]12C", "note": "[Guggulsterone]", "nuclei count": 90.2}
{"smiles": "C/C=C1\\C(=O)C[C@H]2[C@@H]3CCC4=CC(=O)CC[C@]4(C)[C@H]3CC[C@]12C", "note": "[Z-Guggulsterone]", "nuclei count": 101}
{"smiles": "CC(C)(C)NCC(O)COc1cccc2c1CCC(=O)N2", "note": "(stereo unspecified) [Carteolol hydrochloride]", "nuclei count": 105}
{"smiles": "N#Cc1cc2c(OCC(O)CN3CCN(C(c4ccccc4)c4ccccc4)CC3)cccc2[nH]1", "note": "(stereo unspecified)", "nuclei count": 90.9}
{"smiles": "C=C1c2c(Cl)ccc(O)c2C(=O)C2=C(O)[C@]3(O)C(=O)C(C(N)=O)=C(O)[C@@H](N(C)C)[C@@H]3[C@@H](O)[C@H]12.O=C(O)c1cc(S(=O)(=O)O)ccc1O", "note": "[Meclocycline sulfosalicylate]", "nuclei count": 105}
{"smiles": "CNC(=O)c1cc(Oc2ccc(NC(=O)Nc3ccc(Cl)c(C(F)(F)F)c3)c(F)c2)ccn1", "note": "[Regorafenib (BAY 73-4506)]", "nuclei count": 92.1}
{"smiles": "CN(C)CCN(C)C(=O)c1ccc(NC(=O)Nc2ccc(-c3nc(N4CCOCC4)c4ccn(CC(F)(F)F)c4n3)cc2)cc1", "nuclei count": 68.3}
